# According to PubChem BioAssay AID485367 (National Center for Advancing Translational Sciences (NCATS), 2010):
# Among all 330,000 compounds or so, about 560 (0.17%) were called active. Inconclusive results, whose numbers are uncertain, are shown with a selection of clear calls. The call rests on the fitted dose curve; in most records, active means well fitted inhibition curve with a large enough effect; inconclusive means small, poorly fitted or top-dose-only effect, or effect the other way; inactive means flat fitted curve, though single readings scatter. No potency is given beside an inconclusive call; the fits are too rough.
# Target: ATP-dependent 6-phosphofructokinase (Trypanosoma brucei brucei) (UniProt O15648)
# Experiment: qHTS Assay to Find Inhibitors of T. brucei phosphofructokinase; further: nearly all actives have a fitted effect of over 60% in size
# Conditions: T. brucei PFK, ADP-Glo luminescence; series mostly up to 57.5 µM
# Procedure, shortened: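 Compounds were pin-transferred as a titration series up to 57 uM into substrate buffer (0.5 mM F6P, 0.1 mM ATP, pH 8.0), then 1.25 nM PFK was added and reactions ran 45 min before ADP-Glo detection.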
# Potency means the concentration at half of the fitted maximal effect; tags describe the fitted curve by direction and shape.
# Sequence of UniProt O15648 (O15648 whole entry, looked up): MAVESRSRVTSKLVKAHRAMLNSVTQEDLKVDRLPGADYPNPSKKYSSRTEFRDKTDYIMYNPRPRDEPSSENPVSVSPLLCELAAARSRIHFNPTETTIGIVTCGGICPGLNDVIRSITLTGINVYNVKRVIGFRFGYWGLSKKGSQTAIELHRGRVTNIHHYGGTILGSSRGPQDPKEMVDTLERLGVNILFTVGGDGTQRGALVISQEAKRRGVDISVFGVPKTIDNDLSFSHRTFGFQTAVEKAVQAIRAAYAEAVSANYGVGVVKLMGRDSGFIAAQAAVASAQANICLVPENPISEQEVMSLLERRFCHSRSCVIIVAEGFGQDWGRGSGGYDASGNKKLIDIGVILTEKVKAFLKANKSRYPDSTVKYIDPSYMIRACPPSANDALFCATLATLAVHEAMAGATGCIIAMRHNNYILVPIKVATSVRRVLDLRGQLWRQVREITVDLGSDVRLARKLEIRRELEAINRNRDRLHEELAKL
row,SMILES,Potency
1,O=Cc1cn(Cc2ccc(F)cc2)c2ccccc12,"inconclusive [falling, partial curve]"
2,COc1ccccc1NS(=O)(=O)c1cc(NC(=O)c2ccc(Cl)nc2)ccc1N1CCCC1,active: 16.9 µM
3,COc1cc(C(=O)Nc2ccc(Br)cc2C(=O)c2ccccc2Cl)cc(OC)c1OC,inactive
4,O=C(C[N+]12CCC(CC1)C(OC(=O)c1ccccc1)C2)c1ccc([N+](=O)[O-])cc1 (centres undefined),inactive
5,COc1ccc(N2C(=O)CS(=O)C(c3ccccc3)C2=O)cc1 (centres undefined),"inconclusive [falling, partial curve]"
6,C[N+]1(C)C2CC[C@H]1CC(OC(=O)C(CO)c1ccccc1)C2 (some centres undefined),inactive
7,C=CCN1C(=O)NC(=O)/C(=C/c2cc3c4c(c2)CCCN4CCC3)C1=O,"inconclusive [falling, single point]"
8,CN1C(=O)/C(=C/C=C/c2ccco2)C(=O)NC1=S,"inconclusive [falling, single point]"
9,CC(=O)Nc1cc([As](=O)(O)O)ccc1O,"inconclusive [falling, partial curve]"
10,Cc1cc2c(C(C)C)c(O)c(O)c(C=O)c2c(O)c1-c1c(C)cc2c(C(C)C)c(O)c(O)c(C=O)c2c1O,"inconclusive [falling, single point]"
11,Cc1cc(/C=C2\C(=O)NC(=O)N(c3ccccc3F)C2=O)c(C)n1-c1cc(C(=O)O)cc(C(=O)O)c1,inactive
12,O=C1C=C(NCc2ccc(Cl)c(Cl)c2)CC1,active: 4.78 µM
13,O=C1NC(=O)N(Cc2ccc(F)cc2)C(=O)/C1=C\C=C\c1ccco1,"inconclusive [falling, single point]"
14,Nc1nc(N2CCN(c3cccc(Cl)c3)CC2)n[nH]1,active: 26.9 µM
15,CCCCCCCCn1sccc1=O,"inconclusive [falling, single point]"
16,C[C@]12CC[C@H](OC(=O)CCC(=O)O)CC1=CCC1C2CC[C@@]2(C)C1CC[C@@H]2OC(=O)CCC(=O)O (some centres undefined),"inconclusive [falling, single point]"
17,CC(C)C[C@H](NC(=O)C1CC(=O)N(c2ccc3c(c2)OCO3)C1)C(=O)NCc1ccco1 (some centres undefined),"inconclusive [falling, single point]"
18,O=C1NC(=O)N(Cc2ccccc2Cl)C(=O)/C1=C/c1cccs1,inactive
19,CCC1(C)CC(C(N)=S)CCO1 (centres undefined),"inconclusive [falling, full curve, poor fit]"
20,NC(=O)c1ccsc1NC(=O)COC(=O)Cc1ccccc1,"inconclusive [activator, single point]"
21,Cc1ccc(N2C(=O)NC(=O)/C(=C/c3ccoc3)C2=O)cc1,"inconclusive [falling, partial curve]"
22,Cn1c(C(=O)N2CCN(c3nc4ccccc4s3)CC2)cc2sccc21,"inconclusive [activator, full curve, poor fit]"
23,O=C(Nc1ccc2c(c1)OCO2)c1cn(Cc2ccc(F)cc2)nn1,inactive
24,CC(NCc1ccc(Cl)c(Cl)c1)C(O)c1ccccc1 (centres undefined),"inconclusive [falling, partial curve]"
25,CCC(N)Cc1c[nH]c2ccccc12 (centres undefined),"inconclusive [falling, single point]"

row,SMILES,Potency
1,O=C1NC(=S)NC(=O)C1=Cc1ccc(OCC(=O)N2CCCC2)cc1,"inconclusive [falling, single point]"
2,Nc1nc(SCCC(F)=C(F)F)n[nH]1,inactive
3,CC[N+](CC)(CC)CCCOC(=O)C(O)(c1ccccc1)C1CCCCC1 (centres undefined),inactive
4,O=C1NC(=O)N(Cc2ccccc2)C(=O)/C1=C/C=C/c1ccco1,"inconclusive [falling, single point]"
5,CCc1ccc(CN2CCN(Cc3ccc(SC)cc3)CC2)cc1,inactive
6,Cc1cc(N2CCOCC2)ccc1/C=C1\C(=O)NC(=O)N(c2ccccc2)C1=O,"inconclusive [falling, single point]"
7,Cc1cc(C)cc(N2C(=O)NC(=O)/C(=C\C=C\c3ccco3)C2=O)c1,"inconclusive [falling, partial curve]"
8,CCOC(=O)c1c(NC(NC(=O)CF)C(Cl)(Cl)Cl)sc2c1CCCC2 (centres undefined),inactive
9,COc1ccc(C(=O)C2CCCN(C3CSCCSC3)C2)c(OC)c1 (centres undefined),inactive
10,N=c1n(CCO)c2ccccc2n1Cc1ccccc1,inactive
11,COc1ccc(CC(=O)N2CCN(C)CC2)cc1OC,inactive
12,O=C(O)c1ccc(Nc2ncnc3c2cnn3Cc2ccccc2)cc1,"inconclusive [falling, partial curve]"
13,O=C(O)c1cccc2c1NC(C(=O)O)C1CC(Sc3ccccc3[N+](=O)[O-])C(Cl)C21 (centres undefined),"inconclusive [falling, single point]"
14,CN1CCC2(CC1)CC(NC=O)c1ccccc1O2 (centres undefined),inactive
15,O=C1NC(=O)N(c2ccccc2)C(=O)/C1=C\c1ccc([N+](=O)[O-])s1,"inconclusive [falling, single point]"
16,S=C(NCCCN1CCOCC1)N1CCN(c2cccc(Cl)c2)CC1,"inconclusive [falling, partial curve]"
17,CN(CC(=O)NC(=O)NCc1ccco1)CC(=O)Nc1ccccc1Cl,"inconclusive [falling, single point]"
18,C[C@]12CC[C@H](O)CC1=CCC1C2CC[C@@]2(C)C1C[C@@H]1CC(=O)O[C@@H]12 (some centres undefined),inactive
19,CC[C@@]1(O)C(=O)OCc2c1cc1n(c2=O)Cc2cc3c(NC(=O)CN)cccc3nc2-1,"inconclusive [falling, single point]"
20,Cc1nc2ccccc2c(=O)n1-c1ccc(C(=O)O)cc1,"inconclusive [falling, single point]"
21,O=C1NC(=O)N(c2ccccc2)C(=O)/C1=C/C=C/c1ccco1,"inconclusive [falling, single point]"
22,CCC(=NCc1ccco1)c1c(O)n(-c2ccccc2C)c(=O)[nH]c1=O,inactive
23,Cc1cc(N2CCCCC2)ccc1C=C1C(=O)N(C)C(=S)N(C)C1=O,inactive
24,Oc1cc2c(cc1O)[C@H]1c3ccc(O)c(O)c3OC[C@@]1(O)C2,"inconclusive [falling, full curve, poor fit]"
25,CN1C(=O)C(=Cc2c(OCc3cnc(Cl)s3)ccc3ccccc23)C(=O)N(C)C1=O,"inconclusive [activator, single point]"

row,SMILES,Potency
1,COc1ccccc1N1CCN(Cc2ccc(Br)cc2)CC1,inactive
2,COC(=O)C1=C(c2ccccc2OCc2ccccc2)C[C@@H]2CC[C@H]1N2C(=O)NCCc1ccc(F)cc1,inactive
3,CN1CCN(Cc2cc(=O)n3ccsc3n2)CC1,"inconclusive [falling, single point]"
4,CCc1cc2c(s1)N(CC(=O)OC)C(=O)CN=C2c1ccccc1OC,inactive
5,Cc1ccc(NC2c3ncccc3C(=O)N2c2ccccc2C)cc1C (centres undefined),"inconclusive [falling, partial curve]"
6,Nn1c(Cc2cccc3ccccc23)n[nH]c1=S,"inconclusive [falling, partial curve]"
7,O=C1NC(=S)N(c2ccc(F)cc2)C(=O)/C1=C/c1ccco1,active: 6.75 µM
8,Cc1ccnc(NS(=O)(=O)c2ccc(N=Cc3c(O)n(C)c(=O)n(C)c3=O)cc2)n1,"inconclusive [activator, single point]"
9,CN(C)C(=S)SSC(=S)N(C)C,"inconclusive [falling, single point]"
10,Cc1ccc(N2C(=O)NC(=O)/C(=C/C=C/c3ccco3)C2=O)cc1,"inconclusive [falling, single point]"
11,CC/C(=N\NC(=O)c1ccccc1Cl)c1c(O)n(C2CCCCC2)c(=O)[nH]c1=O,inactive
12,O=C(c1ccc(CS(=O)(=O)c2ccccc2)o1)N1CCC2(CC1)OCCO2,"inconclusive [falling, single point]"
13,O=C1NC(=S)NC(=O)C1=Cc1cccn1-c1ccc(O)cc1,"inconclusive [falling, single point]"
14,CC(=O)c1ccc(NC(=O)N2CCN(c3cccc(Cl)c3)CC2)cc1,active: 21.3 µM
15,O=c1c2ccccc2nc(-c2ccccc2)n1-c1cccnc1,"inconclusive [falling, full curve]"
16,CCCNS(=O)(=O)c1ccc(OCC(=O)N2CCN(Cc3ccc4c(c3)OCO4)CC2)c(C)c1,"inconclusive [activator, full curve]"
17,COc1ccc(-n2c(O)c(C(C)=NCCc3c[nH]c4ccccc34)c(=O)[nH]c2=O)cc1,inactive
18,C(#CCN1CCOCC1)COCC#Cc1ccccc1,"inconclusive [falling, single point]"
19,Cc1c(C=C2C(=O)N(C)C(=S)N(C)C2=O)c2ccccc2n1CC(=O)NCC1CCCO1 (centres undefined),"inconclusive [falling, single point]"
20,O=C(Nc1ccc2c(c1)OCO2)c1cccc2c1C(=O)N(Cc1cccnc1)C2,"inconclusive [falling, partial curve]"
21,C=CCNC(=S)Nc1ccc(OC(=O)Nc2ccc(Cl)c(Cl)c2)cc1,active: 13.5 µM
22,COC(=O)C1C(O)CC2CCC1N2C (centres undefined),inactive
23,COc1cccc(OCCc2c(C)n[nH]c2C)c1,active: 26.9 µM
24,O=C1NC(=O)N(c2ccccc2)C(=O)/C1=C\c1ccc([N+](=O)[O-])o1,"inconclusive [falling, partial curve]"
